# Some of the results follow.
# B1: LngA (Escherichia coli) (protein)
# chain: MLSVYNRTQKFKAEARKKIAKYHELRKQRGMSLLEVIIVLGIIGTIAAGVVILAQRAFDSRAVTDLVTNTNTVRVRMKDAYQRDGKYPDFVDPLSLTANTIKTDTSGIPAAQLVQLGKITPDEVRNNISGDFIAIGGALTSNGAQVKKGFAIELNGLSQEQCRSILGQVGNNWEYVAIGTSASGSYAMTATGVDMSVAASTTVLRSLGNNGQTTLTADKILSTCTAQVNSITLGSR
# Tests used:
# Test in all cases: glycan array binding signal (z-score within array); higher = stronger binding
# Conditions in all cases: glycan notation: IUPAC condensed, linker removed
# [1] = target: Gal(b1-4)GlcNAc(b1-2)[Gal(b1-4)GlcNAc(b1-6)]Man(a1-6)[GlcNAc(b1-4)][Gal(b1-4)GlcNAc(b1-2)Man(a1-3)]Man(b1-4)GlcNAc(b1-4)GlcNAc
# Outline: (§1)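 Arrays were curated from the Consortium for Functional Glycomics database, 3228 in total, and kept only where the protein sequence was available. Binding is expressed as a within-array Z-score. This score was averaged across arrays of the same protein sequence at different concentrations or buffers and across linkers, and negative values can be read as non-binding.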
# [2] = target: Gal(b1-4)GlcNAc(b1-2)[Gal(b1-4)GlcNAc(b1-6)]Man(a1-6)[GlcNAc(b1-4)][Gal(b1-4)GlcNAc(b1-2)[Gal(b1-4)GlcNAc(b1-4)]Man(a1-3)]Man(b1-4)GlcNAc(b1-4)[Fuc(a1-6)]GlcNAc
# Outline: as §1
# [3] = target: Gal(b1-4)GlcNAc(b1-3)Gal(b1-3)GalNAc
# Outline: as §1
# [4] = target: Gal(b1-4)GlcNAc(b1-3)Gal(b1-3)GlcNAc
# Outline: as §1
# [5] = target: Gal(b1-4)GlcNAc(b1-3)Gal(b1-4)Glc
# Outline: as §1
# [6] = target: Gal(b1-4)GlcNAc(b1-3)Gal(b1-4)GlcNAc
# Outline: as §1
# [7] = target: Gal(b1-4)GlcNAc(b1-3)Gal(b1-4)GlcNAc(b1-2)Man(a1-3)[Gal(b1-4)GlcNAc(b1-3)Gal(b1-4)GlcNAc(b1-2)Man(a1-6)]Man(b1-4)GlcNAc(b1-4)GlcNAc
# Outline: as §1
# [8] = target: Gal(b1-4)GlcNAc(b1-3)Gal(b1-4)GlcNAc(b1-2)Man(a1-3)[Gal(b1-4)GlcNAc(b1-3)Gal(b1-4)GlcNAc(b1-2)Man(a1-6)]Man(b1-4)GlcNAc(b1-4)[Fuc(a1-6)]GlcNAc
# Outline: as §1
# [9] = target: Gal(b1-4)GlcNAc(b1-3)Gal(b1-4)GlcNAc(b1-2)[Gal(b1-4)GlcNAc(b1-3)Gal(b1-4)GlcNAc(b1-6)]Man(a1-6)[Gal(b1-4)GlcNAc(b1-3)Gal(b1-4)GlcNAc(b1-2)Man(a1-3)]Man(b1-4)GlcNAc(b1-4)GlcNAc
# Outline: as §1
# [10] = target: Gal(b1-4)GlcNAc(b1-3)Gal(b1-4)GlcNAc(b1-2)[Gal(b1-4)GlcNAc(b1-3)Gal(b1-4)GlcNAc(b1-6)]Man(a1-6)[Gal(b1-4)GlcNAc(b1-3)Gal(b1-4)GlcNAc(b1-2)Man(a1-3)]Man(b1-4)GlcNAc(b1-4)[Fuc(a1-6)]GlcNAc
# Outline: as §1
# [11] = target: Gal(b1-4)GlcNAc(b1-3)Gal(b1-4)GlcNAc(b1-3)Gal(b1-4)GlcNAc
# Outline: as §1
# [12] = target: Gal(b1-4)GlcNAc(b1-3)Gal(b1-4)GlcNAc(b1-3)Gal(b1-4)GlcNAc(b1-2)Man(a1-3)[Gal(b1-4)GlcNAc(b1-3)Gal(b1-4)GlcNAc(b1-3)Gal(b1-4)GlcNAc(b1-2)Man(a1-6)]Man(b1-4)GlcNAc(b1-4)GlcNAc
# Outline: as §1
# [13] = target: Gal(b1-4)GlcNAc(b1-3)Gal(b1-4)GlcNAc(b1-3)Gal(b1-4)GlcNAc(b1-2)Man(a1-3)[Gal(b1-4)GlcNAc(b1-3)Gal(b1-4)GlcNAc(b1-3)Gal(b1-4)GlcNAc(b1-2)Man(a1-6)]Man(b1-4)GlcNAc(b1-4)[Fuc(a1-6)]GlcNAc
# Outline: as §1
# [14] = target: Gal(b1-4)GlcNAc(b1-3)Gal(b1-4)GlcNAc(b1-3)Gal(b1-4)GlcNAc(b1-2)[Gal(b1-4)GlcNAc(b1-3)Gal(b1-4)GlcNAc(b1-3)Gal(b1-4)GlcNAc(b1-6)]Man(a1-6)[Gal(b1-4)GlcNAc(b1-3)Gal(b1-4)GlcNAc(b1-3)Gal(b1-4)GlcNAc(b1-2)Man(a1-3)]Man(b1-4)GlcNAc(b1-4)[Fuc(a1-6)]GlcNAc
# Outline: as §1
# [15] = target: Gal(b1-4)GlcNAc(b1-3)Gal(b1-4)GlcNAc(b1-3)Gal(b1-4)GlcNAc(b1-3)Gal(b1-4)GlcNAc(b1-2)Man(a1-3)[Gal(b1-4)GlcNAc(b1-3)Gal(b1-4)GlcNAc(b1-3)Gal(b1-4)GlcNAc(b1-3)Gal(b1-4)GlcNAc(b1-2)Man(a1-6)]Man(b1-4)GlcNAc(b1-4)GlcNAc
# Outline: as §1
# [16] = target: Gal(b1-4)GlcNAc(b1-3)Gal(b1-4)GlcNAc(b1-3)Gal(b1-4)GlcNAc(b1-3)Gal(b1-4)GlcNAc(b1-2)Man(a1-3)[Gal(b1-4)GlcNAc(b1-3)Gal(b1-4)GlcNAc(b1-3)Gal(b1-4)GlcNAc(b1-3)Gal(b1-4)GlcNAc(b1-2)Man(a1-6)]Man(b1-4)GlcNAc(b1-4)[Fuc(a1-6)]GlcNAc
# Outline: as §1
# [17] = target: Gal(b1-4)GlcNAc(b1-3)Gal(b1-4)GlcNAc(b1-3)Gal(b1-4)GlcNAc(b1-3)Gal(b1-4)GlcNAc(b1-2)[Gal(b1-4)GlcNAc(b1-3)Gal(b1-4)GlcNAc(b1-3)Gal(b1-4)GlcNAc(b1-3)Gal(b1-4)GlcNAc(b1-6)]Man(a1-6)[Gal(b1-4)GlcNAc(b1-3)Gal(b1-4)GlcNAc(b1-3)Gal(b1-4)GlcNAc(b1-3)Gal(b1-4)GlcNAc(b1-2)Man(a1-3)]Man(b1-4)GlcNAc(b1-4)[Fuc(a1-6)]GlcNAc
# Outline: as §1
# [18] = target: Gal(b1-4)GlcNAc(b1-3)Gal(b1-4)GlcNAc(b1-3)Gal(b1-4)GlcNAc(b1-3)Gal(b1-4)GlcNAc(b1-3)Gal(b1-4)GlcNAc(b1-2)Man(a1-3)[Gal(b1-4)GlcNAc(b1-3)Gal(b1-4)GlcNAc(b1-3)Gal(b1-4)GlcNAc(b1-3)Gal(b1-4)GlcNAc(b1-3)Gal(b1-4)GlcNAc(b1-2)Man(a1-6)]Man(b1-4)GlcNAc(b1-4)GlcNAc
# Outline: as §1
# [19] = target: Gal(b1-4)GlcNAc(b1-3)Gal(b1-4)GlcNAc(b1-3)Gal(b1-4)GlcNAc(b1-3)Gal(b1-4)GlcNAc(b1-3)Gal(b1-4)GlcNAc(b1-2)Man(a1-3)[Gal(b1-4)GlcNAc(b1-3)Gal(b1-4)GlcNAc(b1-3)Gal(b1-4)GlcNAc(b1-3)Gal(b1-4)GlcNAc(b1-3)Gal(b1-4)GlcNAc(b1-2)Man(a1-6)]Man(b1-4)GlcNAc(b1-4)[Fuc(a1-6)]GlcNAc
# Outline: as §1
# [20] = target: Gal(b1-4)GlcNAc(b1-3)Gal(b1-4)GlcNAc(b1-3)Gal(b1-4)GlcNAc(b1-3)Gal(b1-4)GlcNAc(b1-3)Gal(b1-4)GlcNAc(b1-2)[Gal(b1-4)GlcNAc(b1-3)Gal(b1-4)GlcNAc(b1-3)Gal(b1-4)GlcNAc(b1-3)Gal(b1-4)GlcNAc(b1-3)Gal(b1-4)GlcNAc(b1-6)]Man(a1-6)[Gal(b1-4)GlcNAc(b1-3)Gal(b1-4)GlcNAc(b1-3)Gal(b1-4)GlcNAc(b1-3)Gal(b1-4)GlcNAc(b1-3)Gal(b1-4)GlcNAc(b1-2)Man(a1-3)]Man(b1-4)GlcNAc(b1-4)[Fuc(a1-6)]GlcNAc
# Outline: as §1
# [21] = target: Gal(b1-4)GlcNAc(b1-3)Gal(b1-4)GlcNAc(b1-3)Gal(b1-4)GlcNAc(b1-3)Gal(b1-4)GlcNAc(b1-3)Gal(b1-4)GlcNAc(b1-3)Gal(b1-4)GlcNAc(b1-2)Man(a1-3)[Gal(b1-4)GlcNAc(b1-3)Gal(b1-4)GlcNAc(b1-3)Gal(b1-4)GlcNAc(b1-3)Gal(b1-4)GlcNAc(b1-3)Gal(b1-4)GlcNAc(b1-3)Gal(b1-4)GlcNAc(b1-2)Man(a1-6)]Man(b1-4)GlcNAc(b1-4)GlcNAc
# Outline: as §1
# [22] = target: Gal(b1-4)GlcNAc(b1-3)Gal(b1-4)GlcNAc(b1-3)GalNAc
# Outline: as §1
# [23] = target: Gal(b1-4)GlcNAc(b1-3)Gal(b1-4)GlcNAc(b1-3)[Gal(b1-4)GlcNAc(b1-3)Gal(b1-4)GlcNAc(b1-6)]GalNAc
# Outline: as §1
binder,measurement,setting,value
B1,glycan array binding signal (z-score),[1],-0.286
same,glycan array binding signal (z-score),[2],-0.507
same,glycan array binding signal (z-score),[3],-0.312
same,glycan array binding signal (z-score),[4],-0.538
same,glycan array binding signal (z-score),[5],-0.362
same,glycan array binding signal (z-score),[6],-0.338
same,glycan array binding signal (z-score),[7],3.2
same,glycan array binding signal (z-score),[8],-0.289
same,glycan array binding signal (z-score),[9],1.57
same,glycan array binding signal (z-score),[10],4.27
same,glycan array binding signal (z-score),[11],-0.468
same,glycan array binding signal (z-score),[12],3.43
same,glycan array binding signal (z-score),[13],-0.163
same,glycan array binding signal (z-score),[14],2.23
same,glycan array binding signal (z-score),[15],0.575
same,glycan array binding signal (z-score),[16],1.11
same,glycan array binding signal (z-score),[17],1.43
same,glycan array binding signal (z-score),[18],-0.387
same,glycan array binding signal (z-score),[19],0.707
same,glycan array binding signal (z-score),[20],0.029
same,glycan array binding signal (z-score),[21],-0.224
same,glycan array binding signal (z-score),[22],-0.356
same,glycan array binding signal (z-score),[23],0.33

# From the supplement of paper PMC8728848
